Experimental data from the supplement of paper PMC4967469.
Lines with a small IC50 respond at low doses; a fit beyond the top or the lowest dose is shown as a bound at that dose. AUC is the area under the same curve over the 256-fold range up to the top dose, as a fraction; the more sensitive the line, the further below 1. For part of these data: Any top dose called inferred is not printed in the source and was worked back from the curve model. For part of these data: Where an entry number is given, a second screen of the drug exists; the two often differ.

Assays:
Test in all cases: Viability of human cancer cell lines after 72 h of drug (GDSC screen)
LFM-A13 = compound: C/C(O)=C(\C#N)C(=O)Nc1cc(Br)ccc1Br [LFM-A13]; conditions: top dose 16 µM; top dose inferred
Experimental: (§1)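 Human cancer cell lines in 384-well plates, medium with 10% serum, drug for 72 h over a 256-fold dose range (nine 2-fold or five 4-fold steps up to the top dose). Adherent lines were fixed and stained with the nucleic acid dye Syto60, suspension lines read with resazurin; signal relative to control wells, capped at 0 and 100%. One two-parameter sigmoid per drug and line, fitted in a mixed model over all curves with the slope shared within a line.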

TW-37 = compound: CC(C)c1ccccc1Cc1cc(C(=O)Nc2ccc(S(=O)(=O)c3ccccc3C(C)(C)C)cc2)c(O)c(O)c1O [TW-37]; conditions: top dose 5 µM
Experimental: as §1

Nilotinib = compound: Cc1cn(-c2cc(NC(=O)c3ccc(C)c(Nc4nccc(-c5cccnc5)n4)c3)cc(C(F)(F)F)c2)cn1 [Nilotinib]; conditions: top dose 2 µM
Experimental: as §1

MP470 = compound: S=C(NCc1ccc2c(c1)OCO2)N1CCN(c2ncnc3c2oc2ccccc23)CC1 [MP470]; conditions: top dose 20 µM; top dose inferred
Experimental: as §1

T0901317 = compound: O=S(=O)(c1ccccc1)N(CC(F)(F)F)c1ccc(C(O)(C(F)(F)F)C(F)(F)F)cc1 [T0901317]; conditions: top dose 10.24 µM; top dose inferred
Experimental: as §1

KIN001-270 = compound: Cc1ccc(Nc2cc(-c3cccc(N4C(=O)c5ccccc5C4=O)c3)ncn2)cc1NS(C)(=O)=O [KIN001-270]; conditions: top dose 20 µM; top dose inferred
Experimental: as §1

Bicalutamide = compound: CC(O)(CS(=O)(=O)c1ccc(F)cc1)C(=O)Nc1ccc(C#N)c(C(F)(F)F)c1 [Bicalutamide]; conditions: top dose inferred
Experimental: as §1

Gemcitabine = compound: Nc1ccn([C@@H]2O[C@H](CO)[C@@H](O)C2(F)F)c(=O)n1 [Gemcitabine]; conditions: top dose 1.024 µM
Experimental: as §1

AUY922 = compound: CCNC(=O)c1noc(-c2cc(C(C)C)c(O)cc2O)c1-c1ccc(CN2CCOCC2)cc1 [AUY922]; conditions: top dose 0.256 µM; top dose inferred
Experimental: as §1

[1] = top dose 1.024 µM, screen: GDSC drug entry 150
[2] = top dose 10 µM, screen: GDSC drug entry 1502

Cell Line | AUC (LFM-A13) | IC50 (LFM-A13) [nM] | AUC (TW-37) | IC50 (TW-37) [nM] | AUC (Nilotinib) | IC50 (Nilotinib) [nM] | AUC (MP470) | IC50 (MP470) [nM] | AUC (T0901317) | IC50 (T0901317) [nM] | AUC (KIN001-270) | IC50 (KIN001-270) [nM] | AUC (Bicalutamide; [1]) | IC50 (Bicalutamide; [1]) [nM] | AUC (Bicalutamide; [2]) | IC50 (Bicalutamide; [2]) [nM] | AUC (Gemcitabine) | IC50 (Gemcitabine) [nM] | AUC (AUY922) | IC50 (AUY922) [nM]
NCI-H1048 (small cell lung carcinoma, adherent) | 0.986 | > 16000 | 0.463 | 251 | 0.987 | > 2000 | 0.859 | 14000 | 0.964 | > 10200 | 0.957 | > 20000 | 0.989 | > 1020 | 0.984 | > 10000 | 0.289 | 17.5 | 0.715 | 60.2
P12-ICHIKAWA (T-cell lymphoblastic leukaemia, suspension) | 0.993 | > 16000 | 0.618 | 609 | 0.993 | > 2000 | 0.946 | > 20000 | 0.963 | > 10200 | 0.979 | > 20000 | 0.994 | > 1020 | 0.993 | > 10000 | 0.278 | 17.9 | 0.629 | 33.3
UACC-893 (breast, adherent) | 0.9 | > 16000 | 0.708 | 1490 | 0.972 | > 2000 | 0.675 | 4570 | 0.975 | > 10200 | 0.961 | > 20000 | 0.983 | > 1020 | 0.942 | > 10000 | 0.923 | > 1020 | 0.683 | 62.2
NCI-H2052 (mesothelioma, adherent) | 0.973 | > 16000 | 0.694 | 1290 | 0.982 | > 2000 | 0.981 | > 20000 | 0.973 | > 10200 | 0.981 | > 20000 | 0.98 | > 1020 | – | – | 0.633 | 166 | 0.67 | 54.6
KYSE-410 (oesophagus, adherent) | 0.977 | > 16000 | 0.62 | 683 | 0.977 | > 2000 | 0.98 | > 20000 | 0.982 | > 10200 | 0.985 | > 20000 | 0.982 | > 1020 | – | – | 0.449 | 46.1 | 0.494 | 15.4
PCI-30 (head and neck, adherent) | 0.982 | > 16000 | 0.75 | 1970 | 0.936 | > 2000 | 0.954 | > 20000 | 0.97 | > 10200 | 0.979 | > 20000 | 0.982 | > 1020 | 0.983 | > 10000 | 0.984 | > 1020 | 0.817 | 185
NCI-H1435 (lung adenocarcinoma, semi-adherent) | 0.931 | > 16000 | 0.933 | > 5000 | 0.985 | > 2000 | 0.983 | > 20000 | 0.992 | > 10200 | 0.983 | > 20000 | 0.982 | > 1020 | 0.989 | > 10000 | 0.888 | 936 | 0.87 | 195
HCC1395 (breast, adherent) | 0.981 | > 16000 | 0.809 | 3290 | 0.973 | > 2000 | 0.975 | > 20000 | 0.978 | > 10200 | 0.963 | > 20000 | 0.98 | > 1020 | 0.977 | > 10000 | 0.977 | > 1020 | 0.935 | > 256
SK-OV-3 (ovary, adherent) | 0.935 | > 16000 | 0.558 | 469 | 0.981 | > 2000 | 0.96 | > 20000 | 0.971 | > 10200 | 0.964 | > 20000 | 0.979 | > 1020 | 0.95 | > 10000 | 0.407 | 33.4 | 0.384 | 7.04
DK-MG (glioma, adherent) | 0.946 | > 16000 | 0.767 | 2810 | 0.959 | > 2000 | 0.966 | > 20000 | 0.978 | > 10200 | 0.975 | > 20000 | 0.952 | > 1020 | 0.956 | > 10000 | 0.969 | > 1020 | 0.705 | 81.6
SUIT-2 (pancreas, adherent) | 0.952 | > 16000 | 0.74 | 1580 | 0.984 | > 2000 | 0.956 | > 20000 | 0.959 | > 10200 | 0.985 | > 20000 | 0.985 | > 1020 | 0.981 | > 10000 | 0.19 | 7.15 | 0.878 | > 256
KYSE-150 (oesophagus, adherent) | 0.95 | > 16000 | 0.591 | 549 | 0.969 | > 2000 | 0.937 | > 20000 | 0.985 | > 10200 | 0.986 | > 20000 | 0.989 | > 1020 | 0.988 | > 10000 | 0.196 | 8.39 | 0.476 | 13.8
COLO-680N (oesophagus, adherent) | 0.969 | > 16000 | 0.743 | 1790 | 0.985 | > 2000 | 0.986 | > 20000 | 0.986 | > 10200 | 0.982 | > 20000 | 0.983 | > 1020 | 0.983 | > 10000 | 0.464 | 50.3 | 0.577 | 27
AN3-CA (endometrium, adherent) | 0.964 | > 16000 | 0.728 | 1490 | 0.976 | > 2000 | 0.93 | > 20000 | 0.979 | > 10200 | 0.979 | > 20000 | 0.985 | > 1020 | 0.963 | > 10000 | 0.56 | 94.6 | 0.404 | 8.53
